Measured values published in the supplement of paper PMC10126150.
Values marked as one replicate rest on one cluster of the flow cell; about a third of the high ones do not repeat.

test system: ATP; experiment: switch fluorescence ratio, 500 uM ATP over buffer (Cy3 cluster intensity, sum of 5 cycles each) (fold (ratio)); higher = stronger signal-on switching upon ATP binding; sequences stand for … in TCGTCGGCAGCGTCAGATGTGTATAAGAGACAGTTTTTTTTTTTTTTTTTTTTTTTTT…TC; conditions: aptamer strand: ATP DNA aptamer (quencher-CACCTGGGGGAGTATTGCGGAGGAAGG + anchor), 100 nM annealed; ATP concentration: 500 uM; one replicate
In short: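 Imaging in selection buffer was followed by imaging after 15 min with 500 uM ATP at 22 °C, for Cy3-labelled switching-strand clusters annealed to 100 nM quencher-labelled ATP aptamer on a modified Illumina MiSeq flow-cell. Five of these buffer/ATP cycles ran, separated by NaOH stripping and re-annealing. The fluorescence ratio per cluster is summed target-cycle over summed buffer-cycle Cy3 intensity, averaged per switch-domain sequence; clusters outside 100-1000 RFU were removed.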
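Note: ATP exposure 15 min at 22 °C before imaging.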

Sequence	switch fluorescence ratio
TCTGCTAGGA	1.04
TCTGCTTTAC	2.27
TCTGGACTTT	1
TCTGGCAGGT	1.01
TCTGGCGGGT	0.986
TCTGGGCTAG	1.02
TCTGGGTTT	0.965
TCTGGTATAT	1.12
TCTGGTCCAA	1.03
TCTGGTGCCA	0.98
TCTGTACACC	1.06
TCTGTGCAGA	0.999
TCTGTGCATT	1.25
TCTGTGCGCT	1.13
TCTGTGTTAC	1.17
TCTGTGTTGC	1.07
TCTGTTATGA	0.967
TCTGTTTCG	1
TCTGTTTTTA	1
TCTTAAACCA	0.988
TCTTAACATT	1.02
TCTTAATACG	1.04
TCTTACA	1.04
TCTTACGA	1.02
TCTTACTTTA	1.02
TCTTATTCCA	1.14

Sequence	switch fluorescence ratio
TCTTCGGGG	0.989
TCTTCTCAGA	1.13
TCTTCTTAC	1.03
TCTTCTTTCA	1.03
TCTTCTTTTC	0.969
TCTTGAAGA	0.98
TCTTGAAGAA	0.937
TCTTGATTGG	1
TCTTGGAAAC	0.987
TCTTGTAGGC	1.08
TCTTTAATG	1.03
TCTTTAGACT	0.964
TCTTTAGGAG	0.984
TCTTTCCCGC	2.18
TCTTTCGAGG	1.01
TCTTTGATAC	1.15
TCTTTGCCC	0.992
TCTTTGGGA	1.01
TCTTTTAACC	0.927
TCTTTTACA	1.05
TCTTTTGCAG	1.03
TGAAAAGCAG	1
TGAAACAAAG	1.03
TGAAAGCTCC	1.55
TGAAAGTAGG	0.977
TGAAATCGGA	0.988

Sequence	switch fluorescence ratio
TGAAATTAGC	1
TGAAATTGAT	1.01
TGAACAAAC	1.05
TGAACGGGTA	1.05
TGAACGGTT	0.978
TGAACGTAGG	0.983
TGAAGAGGGT	0.977
TGAAGCACCT	1.36
TGAAGCTTAA	1.12
TGAAGGGAAG	0.999
TGAAGGGATA	0.991
TGAAGTGGGA	0.97
TGAAGTGGTG	1.01
TGAATACTAC	1.16
TGAATATGAA	1.02
TGAATATGTC	0.98
TGAATCTAGC	0.978
TGAATCTTCC	2.63
TGAATTAAGC	1.05
TGACACATAG	1.02
TGACAGCGGA	1.03
TGACATAGAA	0.97
TGACATGGGA	0.949
TGACATTA	1.04
TGACATTAGA	0.967
TGACCCGCGC	2.14

Sequence	switch fluorescence ratio
TGACCGGGCG	0.956
TGACCTGTTC	1.04
TGACCTTTTT	0.988
TGACGAAATA	2.65
TGACGAGGCT	1.12
TGACGATTGC	1.18
TGACGCCGCT	1.31
TGACGCTCGC	1.24
TGACGGACAG	1.01
TGACGGTCCT	0.997
TGACGGTGG	1.04
TGACGTCTTT	0.996
TGACGTGGGT	1.01
TGACGTTGTT	0.942
TGACTAACAC	1.18
TGACTAGATA	0.994
TGACTATTCT	0.98
TGACTCACGC	1.44
TGACTCTATG	1.09
TGACTGCAGT	1.02
TGACTGCGCG	1.05
TGACTGGTGG	0.996
TGACTGTGGG	0.957
